# Results as given in US20240076343A1.
# Tests used:
# Assay in all cases: cell-based or functional assay
# [1] = target: intermediate affinity hIL-2 receptor complex (IL-2Rβγ) on TF1+IL-2Rβ cells (human) (UniProt P14784)
# [2] = target: high-affinity hIL-2 receptor (IL-2Rαβγ) on NK-92 cells (human) (UniProt P01589)
# [3] = target: intermediate affinity hIL-2 receptor complex (IL-2Rβγ) (human) (UniProt P14784)
# [4] = target: high-affinity hIL-2 receptor (IL-2Rαβγ) (human) (UniProt P01589)
Binder,Fold change from hIL-2 (TF1 + IL-2Rβ) [1] [fold],Fold change from hIL-2 (NK-92) [2] [fold],"Fold change from rhIL-2 (TF1 + IL-2Rβ), pSTAT5 titration [3] [fold]","Fold change from rhIL-2 (NK-92), pSTAT5 titration [4] [fold]","Agonistic Activity (TF1 + IL-2Rβ), pSTAT5 titration [3] [%]","Agonistic Activity (NK-92), pSTAT5 titration [4] [%]"
1H3-hIgG1-L6-hIL-2 (D20T) (protein) heavy: EVQLVESGGGLVQPGRSLKLSCAVSGFTFSDYAMAWVRQAPKKGLEWVATISYDGSRTYYRDSVKGRFTISRDNAKITLYLQMDSLRSEDTATYYCARHGSGYFDYWGQGVMVTVSS[not shown - about 450 residues with a human IgG1 Fc and changes] light: DTVLTQSPALAVSPGERVTISCRASESVRTGVHWYQQKPGQQPKLLIYGASNLESGVPARFSGSGSGTDFTLTIDPVEADDTATYFCQQSWNDPFTFGSGTKLEIKRTVAAPSVFIFPPSDEQLKSGTASVVCLLNNFYPREAKVQWKVDNALQSGNSQESVTEQDSKDSTYSLSSTLTLSKADYEKHKVYACEVTHQGLSSPVTKSFNRGEC,2,3,167,8,,
1H3-hIgG1-L6-hIL-2 (D20A) (protein) heavy: EVQLVESGGGLVQPGRSLKLSCAVSGFTFSDYAMAWVRQAPKKGLEWVATISYDGSRTYYRDSVKGRFTISRDNAKITLYLQMDSLRSEDTATYYCARHGSGYFDYWGQGVMVTVSS[not shown - about 450 residues with a human IgG1 Fc and changes] light: DTVLTQSPALAVSPGERVTISCRASESVRTGVHWYQQKPGQQPKLLIYGASNLESGVPARFSGSGSGTDFTLTIDPVEADDTATYFCQQSWNDPFTFGSGTKLEIKRTVAAPSVFIFPPSDEQLKSGTASVVCLLNNFYPREAKVQWKVDNALQSGNSQESVTEQDSKDSTYSLSSTLTLSKADYEKHKVYACEVTHQGLSSPVTKSFNRGEC,2,7,117,21,,
1H3-hIgG1-L6-hIL-2 (D20Y/H16A) (protein) heavy: EVQLVESGGGLVQPGRSLKLSCAVSGFTFSDYAMAWVRQAPKKGLEWVATISYDGSRTYYRDSVKGRFTISRDNAKITLYLQMDSLRSEDTATYYCARHGSGYFDYWGQGVMVTVSS[not shown - about 450 residues with a human IgG1 Fc and changes] light: DTVLTQSPALAVSPGERVTISCRASESVRTGVHWYQQKPGQQPKLLIYGASNLESGVPARFSGSGSGTDFTLTIDPVEADDTATYFCQQSWNDPFTFGSGTKLEIKRTVAAPSVFIFPPSDEQLKSGTASVVCLLNNFYPREAKVQWKVDNALQSGNSQESVTEQDSKDSTYSLSSTLTLSKADYEKHKVYACEVTHQGLSSPVTKSFNRGEC,3,10,30,> 10000,,
1H3-hIgG1-L6-hIL-2 (D20Y/H16Y) (protein) heavy: EVQLVESGGGLVQPGRSLKLSCAVSGFTFSDYAMAWVRQAPKKGLEWVATISYDGSRTYYRDSVKGRFTISRDNAKITLYLQMDSLRSEDTATYYCARHGSGYFDYWGQGVMVTVSS[not shown - about 450 residues with a human IgG1 Fc and changes] light: DTVLTQSPALAVSPGERVTISCRASESVRTGVHWYQQKPGQQPKLLIYGASNLESGVPARFSGSGSGTDFTLTIDPVEADDTATYFCQQSWNDPFTFGSGTKLEIKRTVAAPSVFIFPPSDEQLKSGTASVVCLLNNFYPREAKVQWKVDNALQSGNSQESVTEQDSKDSTYSLSSTLTLSKADYEKHKVYACEVTHQGLSSPVTKSFNRGEC,4,10,343,> 10000,,
1H3-hIgG1-L6-hIL-2 (D20Y/I92A) (protein) heavy: EVQLVESGGGLVQPGRSLKLSCAVSGFTFSDYAMAWVRQAPKKGLEWVATISYDGSRTYYRDSVKGRFTISRDNAKITLYLQMDSLRSEDTATYYCARHGSGYFDYWGQGVMVTVSS[not shown - about 450 residues with a human IgG1 Fc and changes] light: DTVLTQSPALAVSPGERVTISCRASESVRTGVHWYQQKPGQQPKLLIYGASNLESGVPARFSGSGSGTDFTLTIDPVEADDTATYFCQQSWNDPFTFGSGTKLEIKRTVAAPSVFIFPPSDEQLKSGTASVVCLLNNFYPREAKVQWKVDNALQSGNSQESVTEQDSKDSTYSLSSTLTLSKADYEKHKVYACEVTHQGLSSPVTKSFNRGEC,4,11,4,> 10000,,
1H3-hIgG1-L6-hIL-2 (D20Y/I92S) (protein) heavy: EVQLVESGGGLVQPGRSLKLSCAVSGFTFSDYAMAWVRQAPKKGLEWVATISYDGSRTYYRDSVKGRFTISRDNAKITLYLQMDSLRSEDTATYYCARHGSGYFDYWGQGVMVTVSS[not shown - about 450 residues with a human IgG1 Fc and changes] light: DTVLTQSPALAVSPGERVTISCRASESVRTGVHWYQQKPGQQPKLLIYGASNLESGVPARFSGSGSGTDFTLTIDPVEADDTATYFCQQSWNDPFTFGSGTKLEIKRTVAAPSVFIFPPSDEQLKSGTASVVCLLNNFYPREAKVQWKVDNALQSGNSQESVTEQDSKDSTYSLSSTLTLSKADYEKHKVYACEVTHQGLSSPVTKSFNRGEC,4,11,12,> 10000,,
1H3-hIgG1-L6-hIL-2 (R38N/D20A) (protein) heavy: EVQLVESGGGLVQPGRSLKLSCAVSGFTFSDYAMAWVRQAPKKGLEWVATISYDGSRTYYRDSVKGRFTISRDNAKITLYLQMDSLRSEDTATYYCARHGSGYFDYWGQGVMVTVSS[not shown - about 450 residues with a human IgG1 Fc and changes] light: DTVLTQSPALAVSPGERVTISCRASESVRTGVHWYQQKPGQQPKLLIYGASNLESGVPARFSGSGSGTDFTLTIDPVEADDTATYFCQQSWNDPFTFGSGTKLEIKRTVAAPSVFIFPPSDEQLKSGTASVVCLLNNFYPREAKVQWKVDNALQSGNSQESVTEQDSKDSTYSLSSTLTLSKADYEKHKVYACEVTHQGLSSPVTKSFNRGEC,3,14,121,4500,70,70
1H3-hIgG1-L6-hIL-2 (R38G/D20A) (protein) heavy: EVQLVESGGGLVQPGRSLKLSCAVSGFTFSDYAMAWVRQAPKKGLEWVATISYDGSRTYYRDSVKGRFTISRDNAKITLYLQMDSLRSEDTATYYCARHGSGYFDYWGQGVMVTVSS[not shown - about 450 residues with a human IgG1 Fc and changes] light: DTVLTQSPALAVSPGERVTISCRASESVRTGVHWYQQKPGQQPKLLIYGASNLESGVPARFSGSGSGTDFTLTIDPVEADDTATYFCQQSWNDPFTFGSGTKLEIKRTVAAPSVFIFPPSDEQLKSGTASVVCLLNNFYPREAKVQWKVDNALQSGNSQESVTEQDSKDSTYSLSSTLTLSKADYEKHKVYACEVTHQGLSSPVTKSFNRGEC,2,13,139,2810,70,70
1H3-hIgG1-L6-hIL-2 (R38H/D20A) (protein) heavy: EVQLVESGGGLVQPGRSLKLSCAVSGFTFSDYAMAWVRQAPKKGLEWVATISYDGSRTYYRDSVKGRFTISRDNAKITLYLQMDSLRSEDTATYYCARHGSGYFDYWGQGVMVTVSS[not shown - about 450 residues with a human IgG1 Fc and changes] light: DTVLTQSPALAVSPGERVTISCRASESVRTGVHWYQQKPGQQPKLLIYGASNLESGVPARFSGSGSGTDFTLTIDPVEADDTATYFCQQSWNDPFTFGSGTKLEIKRTVAAPSVFIFPPSDEQLKSGTASVVCLLNNFYPREAKVQWKVDNALQSGNSQESVTEQDSKDSTYSLSSTLTLSKADYEKHKVYACEVTHQGLSSPVTKSFNRGEC,3,12,107,1750,70,80
1H3-hIgG1-L6-hIL-2 (R38I/D20A) (protein) heavy: EVQLVESGGGLVQPGRSLKLSCAVSGFTFSDYAMAWVRQAPKKGLEWVATISYDGSRTYYRDSVKGRFTISRDNAKITLYLQMDSLRSEDTATYYCARHGSGYFDYWGQGVMVTVSS[not shown - about 450 residues with a human IgG1 Fc and changes] light: DTVLTQSPALAVSPGERVTISCRASESVRTGVHWYQQKPGQQPKLLIYGASNLESGVPARFSGSGSGTDFTLTIDPVEADDTATYFCQQSWNDPFTFGSGTKLEIKRTVAAPSVFIFPPSDEQLKSGTASVVCLLNNFYPREAKVQWKVDNALQSGNSQESVTEQDSKDSTYSLSSTLTLSKADYEKHKVYACEVTHQGLSSPVTKSFNRGEC,3,11,107,658,60,70
1H3-hIgG1-L6-hIL-2 (R38L/D20A) (protein) heavy: EVQLVESGGGLVQPGRSLKLSCAVSGFTFSDYAMAWVRQAPKKGLEWVATISYDGSRTYYRDSVKGRFTISRDNAKITLYLQMDSLRSEDTATYYCARHGSGYFDYWGQGVMVTVSS[not shown - about 450 residues with a human IgG1 Fc and changes] light: DTVLTQSPALAVSPGERVTISCRASESVRTGVHWYQQKPGQQPKLLIYGASNLESGVPARFSGSGSGTDFTLTIDPVEADDTATYFCQQSWNDPFTFGSGTKLEIKRTVAAPSVFIFPPSDEQLKSGTASVVCLLNNFYPREAKVQWKVDNALQSGNSQESVTEQDSKDSTYSLSSTLTLSKADYEKHKVYACEVTHQGLSSPVTKSFNRGEC,4,11,125,532,70,80
